# Measured values as given in the supplement of paper PMC3334620.
# Whole data set: some 33,000 sequences, median “E-score (-0.5 to 0.5)” near -0.035, cut for the highest 2% near 0.34. This is one part of the list.
# Target: T1, Mot3 (UniProt P54785)
# T1 sequence: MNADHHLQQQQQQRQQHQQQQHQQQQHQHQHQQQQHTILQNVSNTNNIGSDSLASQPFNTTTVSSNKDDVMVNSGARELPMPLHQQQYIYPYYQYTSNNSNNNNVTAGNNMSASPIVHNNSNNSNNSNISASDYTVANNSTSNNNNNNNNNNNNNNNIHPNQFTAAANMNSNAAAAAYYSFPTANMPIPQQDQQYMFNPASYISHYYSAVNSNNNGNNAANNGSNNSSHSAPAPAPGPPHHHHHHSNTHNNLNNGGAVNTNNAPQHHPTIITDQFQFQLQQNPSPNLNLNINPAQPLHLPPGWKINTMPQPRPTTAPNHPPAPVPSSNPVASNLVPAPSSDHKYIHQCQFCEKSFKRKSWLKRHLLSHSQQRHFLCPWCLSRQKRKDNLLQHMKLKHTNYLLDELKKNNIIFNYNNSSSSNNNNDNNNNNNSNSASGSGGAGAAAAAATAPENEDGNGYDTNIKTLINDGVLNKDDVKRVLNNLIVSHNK
# Assay: PBM E-score (8-mer binding enrichment) (E-score (-0.5 to 0.5)); higher = stronger / more preferred TF binding; most listed sequences are background and not binding sites
# Details: protein concentration: 200 nM; construct: GST-full length
# Summary of the method: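 GST-tagged yeast TFs (full-length or DNA-binding domain) were made by PURExpress in vitro transcription/translation and applied at about 100-200 nM to universal all-10-mer Agilent arrays. The arrays were made double-stranded by primer extension, on fresh or once-stripped slides. Bound protein was detected with fluorescent anti-GST, and scans were normalised with masliner. Each ungapped eight-base word, pooled with its reverse complement, received an E-score (modified Wilcoxon-Mann-Whitney statistic) from the Universal PBM Analysis Suite.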
row,Sequence,PBM E-score
1,ACCACTCT,-0.203
2,CAACATTA,0.187
3,ATTAACAG,0.163
4,ATATTGTG,0.143
5,CACACAAA,0.151
6,GTGCGCGA,-0.149
7,CAGTTCAC,-0.0608
8,AGAGGCAC,0.465
9,ATGCCACG,-0.0291
10,CAGTATCA,-0.111
11,GTCAGCTA,-0.211
12,GTATGGCA,-0.0542
13,CACTTGTA,0.23
14,GCAGTGCA,-0.21
15,ACCACGGA,-0.175
16,TTAGAAAA,0.0162
17,ACTTTTCG,-0.0559
18,CTGAGCTA,-0.296
19,TAACTGAA,0.0274
20,ACGGCTGG,-0.296
21,CGCTGATA,0.0385
22,CAGAGTAG,-0.0204
23,ATGACATG,0.294
24,AGGTACGG,0.39
25,ACAGGCGG,-0.015

row,Sequence,PBM E-score
1,AAAGTGAC,0.0409
2,CCTAGTCA,0.0544
3,CTTCGAGA,0.0488
4,GTCAAAAA,0.13
5,GACAGTCC,-0.239
6,ACGACAAG,-0.0379
7,GCTTGGCA,-0.105
8,TAAATATA,0.161
9,ACTGGCCT,-0.225
10,TATTCAAA,0.0658
11,ATTCGACG,0.0182
12,ATACCCAC,-0.107
13,AGTGTGGA,-0.0682
14,ACATTCCC,0.137
15,GACGAAAC,-0.0507
16,ACTTGGAG,-0.126
17,AGTCGACT,-0.0175
18,GCGCGCGA,-0.031
19,ACAGATGT,-0.0647
20,GGTGCGCA,-0.194
21,ACTATGGC,0.128
22,AGGTTTGC,0.0354
23,CCTCTATC,-0.0465
24,AAGCGGTA,0.0928
25,ACGCGAGG,-0.0702

row,Sequence,PBM E-score
1,ATGTTTAG,0.279
2,TCTCCCAA,-0.166
3,CAGCGTGA,-0.0794
4,AGGACCGA,-0.171
5,AGGATTTA,-0.0676
6,GCTTCACC,-0.24
7,CTCATCAG,-0.0116
8,AAGATAAA,0.175
9,AGTGTCAT,0.126
10,GCAGCATA,0.0575
11,AGTTTCAT,-0.0336
12,ACGCAAAA,0.156
13,CCCCTACA,0.0392
14,CCTTCCGA,0.062
15,GGTTTTAC,0.154
16,TGACGACA,0.0496
17,CCCGCGCA,-0.257
18,TACAGACA,0.183
19,TACATTCA,0.246
20,CCACCGCA,-0.192
21,CCCCGGCC,-0.306
22,CATAACCG,-0.103
23,AAGGAAGT,-0.105
24,ATCTTGTG,0.0404
25,AACAAAGC,0.208

row,Sequence,PBM E-score
1,CGCCTCGA,-0.0217
2,ATCCTCAG,-0.0109
3,GCAAGCAA,0.0973
4,AATTGGAG,-0.184
5,CCGCCGCC,-0.203
6,ACTCGTCC,0.0032
7,GAGCACAA,-0.00774
8,CATGCGAC,-0.0646
9,CAAATTTA,0.166
10,ATGCTTAC,-0.188
11,GCACTGGC,-0.14
12,AACGGTAG,-0.142
13,GAAAAGCA,-0.0279
14,CACCAGAC,-0.0318
15,GATCGTGC,-0.0153
16,CTTCGAAG,-0.047
17,TCGTTCAA,0.0303
18,GAATCCCA,-0.0287
19,CCTGGCAC,-0.0639
20,AATTAGTG,0.153
21,CTATTAAA,-0.0103
22,GGTTAACA,0.334
23,CCCGGCTA,-0.185
24,ATTGCTGC,-0.0402
25,CAACCCTC,-0.0831

row,Sequence,PBM E-score
1,CAGGGCCG,-0.243
2,CGGAGTCA,-0.181
3,AGTATAAC,0.0989
4,ATTGTCCA,0.0137
5,AACAATTC,0.0842
6,AGGTTTAG,-0.106
7,ATCTTAAC,0.286
8,CAAAAAGC,0.00649
9,CGCGCGGC,-0.0478
10,CAGGTCTC,-0.115
11,TATCCCGA,-0.12
12,CCAGTAGA,-0.146
13,CTAGAAGC,-0.21
14,ATCATAAC,0.187
15,GGATCTTA,-0.171
16,AGCATTCG,-0.163
17,AGAAGCTG,-0.242
18,ACCTTAGA,-0.00904
19,AGTAGAAC,0.0685
20,AGGATGCC,0.0353
21,ACAGATTA,0.0401
22,CGTAGCCC,-0.0561
23,AAGGGCCT,-0.0702
24,GAAACCGC,0.00318
25,AATGTTGG,0.0946

row,Sequence,PBM E-score
1,ATTTAACG,0.247
2,ACGTATCT,0.0264
3,CCAATGCC,-0.194
4,ATCGATTA,0.283
5,GCACTACA,0.138
6,GGGGCTGA,-0.157
7,TCGGAACA,0.056
8,ATGACACC,0.0508
9,ACTCCTAG,0.0568
10,AGAGTCGC,-0.307
11,AATGGACG,0.0267
12,GAGCGTCC,-0.0545
13,AGCTCCGC,-0.0949
14,AACAAGAC,0.221
15,ACTAACGC,0.0511
16,CGGTACAC,0.00913
17,GACTGATA,-0.216
18,GGGCATCA,-0.23
19,AACGGCGA,-0.179
20,ACTGAACC,0.0727
21,CTGATGTC,-0.068
22,AATATCTG,-0.168
23,CACTGGGA,-0.196
24,TAGTTCCA,0.00515
25,ATTCTTCA,-0.0854

row,Sequence,PBM E-score
1,AATGGTGC,-0.0241
2,AGGGGGGA,-0.295
3,CAACGCCC,-0.205
4,CGGCTTGA,-0.0404
5,TAAACAAA,0.128
6,AAATTCGC,0.0676
7,CCTTAATC,-0.0121
8,CGCTGCTC,-0.116
9,CTTTGGAA,0.00498
10,CGGATATA,-0.014
11,CCGACAGG,-0.0527
12,CAATACAG,-0.00728
13,ATCGCGTG,0.165
14,CTACAATC,0.252
15,GGCCAGTA,-0.167
16,AGATCCCG,-0.122
17,CGATCAGC,-0.152
18,AAGGTTAG,0.0365
19,ACTCTCAA,-0.069
20,AGGCTACA,0.217
21,CGTATTTA,0.264
22,CAGGGCCC,-0.283
23,AATGTTAT,0.238
24,ACCACCCC,-0.137
25,ACTTAAAG,0.082

row,Sequence,PBM E-score
1,CCAGCACC,-0.246
2,CCTTACCA,0.019
3,CTGTTAAC,0.199
4,CACCTCTA,-0.0282
5,GTCGCGAC,0.205
6,CCGCAAGC,-0.0122
7,CGGTAAGC,-0.299
8,AGCTTAAA,-0.0312
9,AACCTATG,0.0809
10,ACTGATTC,-0.00214
11,GAAATTCA,0.0838
12,CTTAGCAA,-0.0183
13,CACGTGCA,0.115
14,AGCTTCTG,-0.33
15,GGCACTGA,0.302
16,CTAACTTC,-0.00629
17,AACGTGCC,0.397
18,AATGTGCG,0.18
19,ACAAAGGC,0.36
20,AGAACATC,-0.16
21,ATGAGGGC,-0.0387
22,GCTTCAAA,-0.105
23,GGACCTCA,-0.274
24,GCGCTTAC,0.0864
25,AACAACAT,0.324

row,Sequence,PBM E-score
1,CACCCGCA,-0.206
2,GACATAAC,0.22
3,CACAGAGC,0.12
4,AGATTTTG,0.00781
5,ACTCAAGT,0.0946
6,GGGCTACA,-0.115
7,TGCGGACA,-0.27
8,AGTGTAGG,0.163
9,AGATAGAA,-0.134
10,ATCAACAG,0.0788
11,GGTATATA,0.166
12,AGCTCCAT,-0.0395
13,ACACTATA,0.0491
14,GTCTATAA,-0.0353
15,CATGAGGC,0.00893
16,TAAACCCA,0.0875
17,CTTATCGA,0.0395
18,CTCCGTGC,-0.0177
19,ACAGGGAC,-0.0359
